This note sets out measurements from paper PMC12040169 (PLOS Biology, 2025).

Some of the results follow.

In this experiment the test system is T1, C. trachomatis L2/434/Bu expressing GFP (CTL2-GFP).
T1 construct: L2/434/Bu GFP intracellular growth in HeLa cells
Further details: species or system HeLa; C. trachomatis total inclusion area by high-content imaging, normalised to DMSO. Conditions: total inclusion area; 28.5 h, 10 µM; inhibitor. Put shortly:
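High-content imaging followed the bulk GFP/resorufin measurement: fixed, Hoechst-stained cells were scored for GFP inclusions and host nuclei per well. Total inclusion area and count served as growth proxies, nuclei number as the viability proxy. MIC calculation matched the bulk assay.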
For the molecule `COc1cc(CNCc2ccccn2)ccc1OCc1ccccc1C` [CBK270108C], the “% of control remaining” value is given as 64.5694.

Regarding `COc1ccc(-c2nc(-c3cc4ccccc4s3)cnc2N)cc1OC` [CBK063963], the “% of control remaining” value is 63.9048.

Turning to `Cc1cc(-c2sc(N)nc2-c2cccs2)on1` [CBK284492], the “% of control remaining” value is given as 120.603.

Take `COc1ccc(/C=N/NC(=O)c2cc[nH]n2)cc1COc1ccc(Cl)cc1Cl` [CBK263708]: the “% of control remaining” value came out at 105.031.

Take `Clc1ccc(CN2CCc3ccccc3C2)cc1Cl` [CBK126395]: the “% of control remaining” value was 79.6739.

Turning to `CC(C)CCCC(=O)n1ccn(CCCOc2ccccc2)c1=O` [CBK106561], the “% of control remaining” value is on record as 82.6191.

For the molecule `O=C(O)CC(c1ccccc1)c1ccc2c(c1)OCO2` (centres unmarked) [CBK286983], the “% of control remaining” value came to 100.554.

With `CCOC(=O)c1cn(CC2(CO)CCC2)cc(Oc2ccccc2)c1=O` [CBK306698], the “% of control remaining” value is reported as 72.0987.

With `CC(C)(CO)CCCn1cncc1-c1cnn(C2CCCCC2)c1` [CBK281779], the “% of control remaining” value is 93.7312.

Take `CCC(=O)N(C)[C@H]1CC[C@]2(CC1)CNC(=O)c1ccccc1O2` [CBK281683]: the “% of control remaining” value is given as 91.5825.

With `Cc1cc(NS(=O)(=O)c2cccc(Cl)c2C)on1` [CBK022499], the “% of control remaining” value is 101.505.

Turning to `O=C(O)CCN1CCN(S(=O)(=O)c2ccc3ccccc3c2)CC1` [CBK269255], the “% of control remaining” value turned out to be 110.082.

Consider `CS(=O)(=O)c1ccc(-c2nccnc2N2CCN(c3ccncc3)CC2)cc1` [CBK036924], for which the “% of control remaining” value was found to be 151.788.

On to `COc1ccccc1N1CCN(C(=O)NCc2cnc(C)cn2)CC1` [CBK155367], for which the “% of control remaining” value is given as 86.4458.

On to `O=S(=O)(N1CCCCCC1)n1ccnc1` [CBK269241], for which the “% of control remaining” value worked out at 58.8929.

Turning to `CN(c1ncc(Br)cc1C(=O)Nc1ccc(C(F)(F)F)cc1)S(C)(=O)=O` [CBK076542], the “% of control remaining” value was 96.5891.

As to `COc1cc(-c2cnc(N)c(N[C@H](CO)C(C)C)n2)cc(OC)c1OC` [CBK063765], the “% of control remaining” value was found to be 130.061.

As for `CSc1nc(NC(=O)CCCc2ccccc2)cc(N2CCNCC2)n1` [CBK050258T], the “% of control remaining” value is recorded as 61.0869.

Take `CCn1cc(NC(=O)C(CC)(CC)CN)ccc1=O` [CBK304320C]: the “% of control remaining” value is on record as 76.5887.

`NC(=O)c1ccc(-c2nccnc2NCc2ccc3c(c2)OCO3)cc1` [CBK036696]: the “% of control remaining” value is recorded as 123.144.

As to `O=C(CCN1CCc2ccccc2C1)Nc1cccc(F)c1` [CBK264282], the “% of control remaining” value was determined as 85.5628.

Take `Cn1cc(C(=O)N2CCOCC2c2nc(-c3cccs3)no2)cn1` (centres unmarked) [CBK305422]: the “% of control remaining” value amounted to 29.5298.

Consider `Cc1ccc2c(c1)C(NC(=O)N(C)C1CCS(=O)(=O)CC1)CC(C)(C)O2` (centres unmarked) [CBK307654], for which the “% of control remaining” value amounted to 120.738.

Turning to `O=S(=O)(NC1CCN(Cc2ccccc2)CC1)c1cccc2nonc12` [CBK062030], the “% of control remaining” value came out at 100.949.

With `Cc1ccc(C)c2c(C)c(C(=O)N3CCC(O)C(C)C3)[nH]c12` (centres unmarked) [CBK282527], the “% of control remaining” value is reported as 130.748.

For `O=C(OCCC1SC(NC2CC3C=CC2C3)=NC1=O)c1ccc(Cl)c(Cl)c1` (centres unmarked) [CBK200056T], the “% of control remaining” value is reported as 90.7539.

For the molecule `CN(C)c1ccc(C(=O)N2CCC(c3cc4cnccc4[nH]3)CC2)cc1` [CBK283446], the “% of control remaining” value was 98.0111.

As for `Cc1ccc(OCc2occc2C(=O)N2CCc3[nH]cnc3C2)cc1` [CBK307717], the “% of control remaining” value is 47.6923.

Consider `COc1ccc(/C=C(\C)C(=O)Nc2cccc(N3CCNCC3)c2)cc1OC` [CBK034115T], for which the “% of control remaining” value is reported as 102.808.

Regarding `CCCC/C(=N/N=C(\CCCC)c1ccncc1)c1ccncc1` [CBK016521], the “% of control remaining” value was determined as 105.572.

With `O=S(=O)(Nc1nnc(C(F)(F)F)s1)c1ccc(F)cc1` [CBK026663], the “% of control remaining” value was 91.2903.

For the molecule `O=C(CSc1nc(-c2cccs2)cc(C(F)(F)F)n1)N1CCSCC1` [CBK307371], the “% of control remaining” value came to 71.1725.

Regarding `CC(C)C(=O)N1CCCc2cc(C(O)CN3CCCCC3)ccc21` (centres unmarked) [CBK282127], the “% of control remaining” value was found to be 108.106.

Take `O=C(CNC(=O)c1ccccc1C(=O)O)Nc1ccccc1` [CBK286690]: the “% of control remaining” value amounted to 59.9235.

For `Cc1cc(NS(=O)(=O)c2ccc(NC(=S)NCC3CCCO3)cc2)no1` (centres unmarked) [CBK268160], the “% of control remaining” value is 61.859.

`O=C(O)C1CC=CCC1C(=O)Nc1ccc(S(=O)(=O)N2CCCc3ccccc32)cc1` (centres unmarked) [CBK268179]: the “% of control remaining” value came to 84.0152.

Take `CN(C)S(=O)(=O)c1cc(C(=O)Nc2ccc(O)cc2)c(Cl)cc1Cl` [CBK266767]: the “% of control remaining” value was 73.6848.

As to `O=C1CC[C@@H](NCc2ccncc2)[C@H](c2cc(F)cc(F)c2)N1` [CBK283131], the “% of control remaining” value is 101.416.

Consider `O=S1(=O)C=C(c2ccc(Cl)cc2)S(=O)(=O)CC1` [CBK018403], for which the “% of control remaining” value is 48.7445.

On to `N#Cc1c(NC(=O)CCn2cnnn2)sc2c1CCC2` [CBK270041], for which the “% of control remaining” value is recorded as 66.9554.

As for `CCOC(=O)CSc1nc2cc(Cl)c(Cl)cc2nc1NC(C)C` [CBK107173], the “% of control remaining” value is recorded as 97.4065.

Turning to `CN1C[C@@H](NC(=O)COc2ccccc2)C[C@H]1c1nc(-c2ccncc2)no1` [CBK288855], the “% of control remaining” value is given as 123.458.

In the case of `Cc1ccccc1C(=O)NC(NC(=S)Nc1sc2c(c1C(N)=O)CCCC2)C(Cl)(Cl)Cl` (centres unmarked) [CBK261047], the “% of control remaining” value is 83.9841.

In the case of `COCCC(=O)NCc1ccccc1OC1CCNC1` (centres unmarked) [CBK024504T], the “% of control remaining” value worked out at 124.514.

With `O=C(c1cnc2ccccc2n1)N1CCN(CCc2ccccc2)CC1` [CBK200214], the “% of control remaining” value is 94.8243.

Regarding `CCN(CCc1nc2cc(OC)ccc2[nH]1)C(=O)c1cc(C#N)cn1C` [CBK306658], the “% of control remaining” value turned out to be 90.6045.

`Cc1cc(Cl)c(S(=O)(=O)N2CCN(c3ccc(F)cc3)CC2)cc1OCC(N)=O` [CBK266439]: the “% of control remaining” value stood at 125.051.

Turning to `COc1ncccc1CNc1ncnc2c1cnn2CCO` [CBK305980], the “% of control remaining” value is 6.069.

For `Nc1cccc(Oc2ccc(C(c3ccc(Oc4cccc(N)c4)cc3)(C(F)(F)F)C(F)(F)F)cc2)c1` [CBK261645], the “% of control remaining” value is on record as 79.5839.

With `COc1cc(C)c(Nc2cc(-c3cccnc3)ncn2)cc1OC` [CBK037754], the “% of control remaining” value worked out at 79.9351.

`CCn1c(C)cc2cc(NS(=O)(=O)c3ccc4[nH]c(=O)[nH]c(=O)c4c3)ccc21` [CBK286363]: the “% of control remaining” value is listed as 118.153.

Consider `Cc1c(C(=O)O)sc(S(=O)(=O)N2CCN(C(=O)CC3CCCC3)CC2)c1C(=O)O` [CBK297122], for which the “% of control remaining” value was 102.699.

As to `O=C(NC(=S)Nc1ccc(S(=O)(=O)Nc2nccs2)cc1)C12CC3CC(CC(C3)C1)C2` [CBK261067], the “% of control remaining” value turned out to be 74.4135.

Turning to `OC1CCCn2c1nc1cc(Cl)ccc12` (centres unmarked) [CBK113625], the “% of control remaining” value turned out to be 67.9579.

With `CC1(C)CC(=O)C(=CNCCCn2ccnc2)C(=O)C1` [CBK261686], the “% of control remaining” value worked out at 103.68.

For the molecule `O=C1CCC(=O)N1CCOc1nccnc1N1CCN(CCc2ccccc2)CC1` [CBK084302], the “% of control remaining” value is recorded as 85.1697.

`FC(F)(F)c1ccc(OCc2ccc(-c3ccccc3)cc2)nc1` [CBK115830]: the “% of control remaining” value is on record as 119.09.

For `CC(=O)C1=C(O)C(=O)N(CC(=O)O)C1c1cccc([N+](=O)[O-])c1` (centres unmarked) [CBK262921], the “% of control remaining” value was found to be 100.656.

Regarding `c1ccc(N2CCC(CNCc3c[nH]nc3-c3cccnc3)C2)cc1` (centres unmarked) [CBK305738], the “% of control remaining” value was found to be 79.2547.

With `CC(C)(C)OC(=O)NCc1ccc(CNCc2ccccc2C(F)(F)F)cc1` [CBK056703], the “% of control remaining” value worked out at 97.435.

For the molecule `CCc1nn(Cc2ccccn2)c(=O)c2cc3sccc3n12` [CBK284074], the “% of control remaining” value is recorded as 112.629.

As for `CC(CCc1ccccc1)N1CCN(S(=O)(=O)c2ccc3ccccc3c2)CC1` (centres unmarked) [CBK264240], the “% of control remaining” value is recorded as 96.6101.

As to `COC(=O)Nc1ccc(S(=O)(=O)N2CCCC(C(=O)Nc3ccc4c(c3)OCO4)C2)cc1` (centres unmarked) [CBK265361], the “% of control remaining” value is recorded as 92.9655.

For `COc1ccc(C(=O)N(Cc2ccco2)Cc2cc3ccccc3nc2O)cc1` [CBK269594], the “% of control remaining” value was 100.894.

With `Cc1nc2n(CCN3CCCCC3)c3ccccc3n2c1C(=O)c1cccs1` [CBK278242B], the “% of control remaining” value was 78.7949.

Consider `CC(C)C(=O)N[C@@H](C)Cn1c(C(F)(F)F)cc2cccnc21` [CBK283231], for which the “% of control remaining” value is 72.0659.

Regarding `CN1CCN(c2ccc(C(=O)O)cc2)CC1` [CBK264773], the “% of control remaining” value came out at 109.234.

With `COc1cc2c(cc1OC)C(C)N(C(=O)Nc1ccc3c(c1)OCCO3)CC2` (centres unmarked) [CBK086204], the “% of control remaining” value is 97.0723.

Take `COc1cc(CN2C[C@@H](c3ccccc3)[C@@H]3NC(=O)CCCC[C@H]32)cc(OC)c1` [CBK285646]: the “% of control remaining” value was 92.8595.

For the molecule `COc1ccc([C@@]23CC[C@@H](NC(=O)c4cc(F)c(Cl)cc4Cl)C[C@@H]2N(C)CC3)cc1OC` [CBK074264T], the “% of control remaining” value worked out at 35.9325.

Consider `CCOC(=O)Cn1nc(-c2nonc2N)nc1-c1nonc1N` [CBK265482], for which the “% of control remaining” value is recorded as 94.5297.

Regarding `CCN(Cc1ccc(C#N)cc1F)C(=O)Nc1cnn(CCOC)c1` [CBK305697], the “% of control remaining” value came to 62.9932.

`O=C(NCCNc1c(Cl)cccc1[N+](=O)[O-])c1cccc(Br)c1` [CBK263940]: the “% of control remaining” value was found to be 89.9414.

With `CC1CCCCC1NC(=O)NC(=O)Cn1nnc2ccccc2c1=O` (centres unmarked) [CBK306046], the “% of control remaining” value is on record as 43.8934.

With `COc1ccc(-c2nc(-c3cccc(F)c3)cnc2N)cc1OC` [CBK063948], the “% of control remaining” value worked out at 129.666.

As for `CN(C)C(=O)N1CCC2(CC1)CC(=O)N(Cc1ccc(S(C)(=O)=O)cc1)C2=O` [CBK155957], the “% of control remaining” value amounted to 48.9595.

Consider `CNC(=O)CSc1nc2cc(Cl)ccc2c(=O)n1CC1CCCO1` (centres unmarked) [CBK305937], for which the “% of control remaining” value amounted to 92.1593.

For the molecule `O=C1CCC(=O)N1CCn1c(=O)n(C(=O)CCC2CCCC2)c2ccccc21` [CBK106495], the “% of control remaining” value is listed as 70.3184.

Take `Cn1ccc(C(=O)NC2CCN(c3ncccn3)CC2)cc1=O` [CBK304280]: the “% of control remaining” value stood at 99.6268.

`CCCC(=O)Nc1cccc(NC(=O)c2nc[nH]n2)c1` [CBK269604]: the “% of control remaining” value is on record as 61.372.
